# Laboratory results taken from ChEMBL document CHEMBL4888484, “Replenishing the malaria drug discovery pipeline: Screening and hit evaluation of the MMV Hit Generation Library 1 (HGL1) against asexual blood stage Plasmodium falciparum ,using a nano luciferase reporter read-out” (2022).
# In all, about 150,000 compounds went through this assay and about 540 (0.36%) showed an effect of 50% or more. Some of the results follow.
# System: Plasmodium falciparum
# Assay: Primary screen in NF54 nanoGlo assay, in single point, at 2uM, 72h; a lower Z score goes with more inhibition
# Format: functional, Erythrocyte
# Conditions: timepoint 72 hour
Structure (SMILES),% Inhibition [%],Z score
O=C(c1cnccn1)N1CCC[C@H]1c1nc2ccccc2s1,-6,0.74
CCOc1ccc(CN2CCN(C(=O)c3ccco3)CC2)cn1,4,-0.55
CC(C)c1cc(NCc2csc(-c3ccn(C)n3)n2)ncn1,-13,1.98
Cc1ncsc1Cn1nc(C2CCNCC2)n(Cc2ccccc2)c1=O,-22,2.58
O=C(Cc1ccccc1)N[C@H]1CCN(c2nc3ccccc3n2C2CCCC2)C1,-8,1.54
Cc1nn(C)c2nc(-c3cccs3)cc(C(=O)N3c4ccccc4C[C@@H]3C)c12,-4,0.66
COC(=O)C[C@H](c1c(Cc2ccc(OC)cc2)[nH][nH]c1=O)c1ccnn1C,-10,1.33
CC(=O)N1CCC(NC(C)(C)Cc2ccc(Cl)cc2Cl)CC1,-7,0.79
CN(Cc1ccc(Br)o1)C(=O)[C@@H]1CCCO1,-7,1
O=C1CNCCN1[C@H]1CCCN(S(=O)(=O)c2cc(Cl)cc(Cl)c2)C1,-12,2.16
COC(=O)CC[C@H](C)N1CCc2[nH]nc(-c3cccc(OC)c3)c2C1,-12,1.12
CCOC(=O)C(O)C(C)NC(=O)CCc1cccc(OC(F)F)c1 (stereo not drawn),-1,0.18
CNC(=O)CN1CCC(CN(C)c2ccnc3c(F)cccc23)CC1,1,-0.11
COc1cccc(NC(=O)N2CC[C@H]3CC(=O)Nc4ccccc4OCC[C@H]3C2)c1,-9,1.71
Cc1cc2cc(C(=O)N(CC(=O)O)C3CC3)oc2cc1C,-4,0.77
CC(C)Cc1cc(C(=O)N2CC(c3ccncc3)C2)nc(=O)[nH]1,-11,1.4
Clc1ccc(-c2cc(CN3CCn4ccnc4C3)on2)c(Cl)c1,3,-0.69
CCN(CCO)c1ccc(C(=O)NC2CC2)nn1,0,0.02
COC(=O)c1ccccc1N1C(=O)[C@@H]2[C@H](Cc3ccccc3)N[C@]3(C(=O)Nc4ccccc43)[C@@H]2C1=O,-10,1.3
C[C@H]1CN(CCc2cn(CC(=O)O)nn2)CCc2ccc(F)cc21,-9,1.04
Cc1cccc(N2CCN(C(=O)Nc3cccnc3)[C@@H](C)C2)n1,3,-0.42
O=C1C[C@H](c2nc3ccccc3n2Cc2cccc3ccccc23)CN1c1ccccc1,2,-0.34
CS(=O)(=O)C1CCCCC1NCc1cccnc1N1CCOCC1 (stereo not drawn),-5,1.05
CCCc1cc(C(=O)NCCN2CCOC2=O)no1,-7,0.85
O=C(NCCCc1ccccc1F)[C@@H]1NCCc2[nH]cnc21,-6,0.6
COCc1ncc(C)n1CC1CCN(C(=O)C(C)C)CC1,9,-1.24
CCOCCN1CCC[C@H](S(=O)(=O)NC)C1,-7,0.8

Structure (SMILES),% Inhibition [%],Z score
CCCN(Cc1cc(=O)n(C)c(=O)n1C)C1CC(OCC)C1(C)C (stereo not drawn),1,-0.07
CC(C)CN1CCN([C@H]2CCOC3(CCN(C(=O)c4ccc5cc[nH]c5c4)CC3)C2)CC1,-16,1.72
Cc1ccc(NC(=O)C2CC3C=CC2C3)nc1 (stereo not drawn),0,0.06
CN1CCC[C@H](CNC(=O)c2cncc(C(=O)O)c2)[C@H]1c1ccccc1,-4,0.64
COc1cccc(NC(=O)C2=Cc3cc(Cl)cc(OC)c3OC=C2)c1,41,-5.55
CCOCCCC(=O)N1CCc2cc(OC)c(OC)cc2[C@@H]1C1CC1,-12,2.16
CC(C)(C)c1nc(CN2CCC[C@H]2c2ccsc2)no1,-4,0.52
O=S(=O)(NCc1nc(C2CCC(F)(F)CC2)no1)c1ccc(-n2cccn2)cc1,-16,1.98
Cc1cc(C)c(S(=O)(=O)NCc2nc(C(=O)O)c(C)s2)s1,-16,1.91
COCCNC(=O)c1cn2c(n1)CC[C@H](c1cc(C(F)(F)F)cc(C(F)(F)F)c1)C2,-9,1.42
O=C1CN(C(=O)CCC(F)(F)F)CCN1CCc1ccccc1,-4,0.88
COc1ccccc1C(=O)NC[C@H]1Cn2ccnc2CO1,-9,1.35
COc1cccc(CC(=O)N[C@H]2CCN(c3cc(C)cc(C)c3)C2=O)c1,-5,0.72
O=C(CNC(=O)C1CCCC1)N[C@H]1CCN(C(=O)COc2ccccc2)C1,-5,0.58
CCOC(=O)N(C)CC(=O)NCC(=O)OCC1CC1,6,-0.7
CC(=O)N1CC(C(=O)NCCc2ccc(F)cc2)C1,-12,1.58
CCCc1nnc(N2CCc3[nH]c4ccc(C)cc4c3C2)o1,-6,1.04
CCOC[C@H]1CCCN(S(=O)(=O)c2cnnn2C)C1,3,-0.32
Cc1cnc(C(=O)N2CCC3(CC2)c2[nH]c4ccccc4c2CCN3C)cn1,-3,0.63
O=C(c1ccc2c(c1)OCCO2)N1CCN(c2cnccn2)CC1,-10,0.96
O=C(Cc1ccon1)N(Cc1ccccc1O)C[C@H]1CCCO1,-11,1.46
CS(=O)(=O)N1CC[C@H](Oc2ccc3ccccc3n2)C1,3,-0.63
CN1CCN(Cc2ccc3cccc(Cl)c3n2)C[C@]12CCNC(=O)CC2,-16,3.14
CCn1cc(C)c(C(=O)O)c1CC(=O)N1CCc2ccccc2C1,5,-0.62
Fc1ccc(COc2ccc(Cl)cc2CNCc2ccc3c(c2)OCO3)cc1,-3,0.36
Cc1cc(=O)n2nc(CCC(=O)N[C@H](CO)Cc3ccccc3)nc2[nH]1,-4,0.5
Oc1c2c(nc3ccccc13)CCCCC2,25,-3.15
